# Results: PubChem BioAssay (NCI)
# More than one record can exist for a structure, and the calls need not agree.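 Single-dose data. Exposure time 48 hours. Values below 10 considered active.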 Some entries of the source have several records that differ or are many. The list is limited to them. An entry can have further records. For part of these data: These are repeated runs of one drug, at its own concentration, as given; one value stands for one run. Brackets with × say how often a value occurs here. Some values that stand alone complete this part of the results.
# Key:
# HCC-2998 colon = test: NCI-60 one-dose screen, 48 h (100 = growth as untreated, 0 = no growth, -100 = all killed); settings: 25 µM; runs of 2000
# KM12 colon = test: as above; settings: 0.25 µM
structure (smiles),measurement,setting,value
COc1cccc2c1C(=O)c1c(O)c3c(c(O)c1C2=O)C[C@@](O)(C(=O)CO)C[C@@H]3OC1CC(N)C(O)C(C)O1 (some centres not stated),growth,HCC-2998 colon,active: -100% (2×)
same,growth,KM12 colon; runs of 2006,"inactive: 61%, 50.3%"
same,growth,KM12 colon; runs of 2007,"inactive: 58.6 (2×), 64.5, 57.4, 48.4 (2×), 58.5, 50.3, 59.8 (2×), 55.1, 51.9, 55.4, 64.8, 57.8, 65.1, 50.1, 50.4, 51.5, 65.4, 46.2, 51.4, 57.5 (2×), 62.7, 52.4, 56.7, 60.9, 63.2, 60.5, 57.2, 48.7, 60.2, 64.9, 64.4 (2×), 68.7, 72.3, 38.2, 56.8, 43.9, 60.8, 54, 43% and active: 0.124%"
same,growth,KM12 colon; runs of 2008,"inactive: 62.3, 55.2, 61.2, 59.8, 56.1, 57.7, 61.7, 50.5, 57.8, 59, 64.1, 59.3, 53.3 (2×), 59.6 (2×), 54.3, 31.9, 45.8 (2×), 46.5, 45.9, 48.5, 29.4, 41.3, 32.9, 36.5, 33.6, 38.7, 49.5, 40.5, 107, 55.1, 27.6, 49, 48.6, 22, 47.3, 21, 49.7, 43, 39.5, 32.5, 47.4, 57.5, 56.3, 62.1, 62.2, 71.8, 67.7, 44.1, 45.6, 56.7, 59.4, 50.4, 44.5, 60.9%"
same,growth,KM12 colon; runs of 2009,"inactive: 44.1, 47.4 (2×), 52.7, 46.6, 48.2, 52.8, 62.3, 72, 46.2, 54.2, 50.9, 61.9, 58.1, 60.7, 59.2 (2×), 60.2 (3×), 59.7, 53.6 (2×), 58.2, 58.7, 57, 46.7, 47.3, 53, 61.1, 64.8, 51.6, 61, 57.8, 70.8, 56.8 (2×), 62.1, 54.9, 57.9, 26, 54.6, 50.6, 48.8, 64.4 (2×), 62.8, 55.5, 53.8, 39.5, 50.1, 28, 21.1, 41.3, 47.1, 52.2, 40, 63.3, 71.1, 56.1, 55.4, 46.4, 76.9, 57.5, 65.8, 62.2, 56.5, 60.6, 56.4%"
same,growth,KM12 colon; runs of 2010,"inactive: 63.7, 55, 55.4, 54.6, 62.1, 63.9, 57.2, 59.1, 60.8, 62.4 (3×), 64.1, 53.2, 67.2, 60.7, 54.3, 58.9, 60.2, 50.4, 58.5 (2×), 50.1 (2×), 67.9, 64, 50.7, 59.8, 59.2 (2×), 55.6, 39.2, 51.5, 49.3, 63.4, 61.3, 64.8, 54.2, 53, 56.7, 55.2, 67.6, 52, 74.8, 64.5, 63.1, 64.6, 68.4, 58.8, 57.9%"
same,growth,KM12 colon; runs of 2011,"inactive: 60.3, 62, 60.7 (2×), 62.2 (2×), 62.9, 61.4, 68.5, 61.1, 59.1, 56.8 (2×), 64.1, 55.9, 61 (2×), 56.9, 65.8 (2×), 67.1 (2×), 72.9, 67, 69.7, 72.5, 73, 69.2, 64.3 (2×), 69.9, 76.7, 77.7, 70.8, 54.6, 65.6, 59.7, 44.4, 55.5, 59.8, 54.1, 65.7, 60.5, 59, 61.6, 51, 57.1, 55.2, 58.9, 41.1, 59.2, 65.2, 78, 67.8, 67.9, 73.1, 74.1, 63.8, 54.7%"
same,growth,KM12 colon; runs of 2012,"inactive: 67.3, 53.9, 59.4, 50.9 (2×), 68.2, 60.9, 62.9 (2×), 66.9 (2×), 66.1, 57.4, 56.7, 53.8, 43.6, 58.6, 53.5, 55.7, 63.7, 57.5, 53.1, 55.8, 59, 61.9, 63.5, 68.5, 64.6, 69.8 (2×), 71 (2×), 70.1, 62.8, 73.2, 63.8, 65.7 (2×), 72.8, 73.1, 62.4, 69.4, 62.6, 74, 75.5 (2×), 80.7, 71.4, 81.5, 81.4, 73.8, 72.5, 76.2, 68.1, 57.1, 58.2, 63.1, 49.5, 54.8, 59.6, 69.5, 60.6, 67.5, 46.1, 60.8, 34.4%"
same,growth,KM12 colon; runs of 2013,"inactive: 59.4, 44.4 (2×), 47.1, 55.9, 68, 59.5, 69.1 (2×), 70.1, 70.8, 71, 60.5, 69.7, 58.4 (3×), 71.3, 67.3 (4×), 57.7 (2×), 73 (2×), 79.7, 75, 63.8, 50.7, 58.8, 60.4, 75.2 (2×), 65.8 (2×), 74.6, 72.4, 67.9, 65.7, 64.3, 61.1, 57.9, 59.6, 63.7 (2×), 67.6, 62.9, 56.4 (2×), 68.9, 68.5, 56.5, 60.9, 62.4, 54.9, 39.5, 48.4, 49.2, 55.6 (2×), 58.1, 48.9, 57.4, 44.9, 51.6%"
same,growth,KM12 colon; runs of 2014,"inactive: 60.5, 55.3 (2×), 46.7, 41.6, 56 (2×), 50.1 (2×), 56.3, 44.9, 57.6, 52.1, 59.5 (3×), 57, 64.2, 58, 50.3, 66.9 (2×), 58.1, 60.2, 59.1 (2×), 58.2, 54.3, 63.6, 62.9, 60.8, 58.9, 51.7, 53.3, 59.7, 59.8, 60.7 (3×), 64.5, 60.6, 64.4 (2×), 55.9, 63.3, 57.8, 54.9 (2×), 57.2, 54 (2×), 59, 55.2, 55.6, 53.6 (2×), 47.4, 51, 55.7 (3×), 56.7, 50.9, 48.6, 67.4, 52.8, 48.3, 48.5, 54.1 (2×), 52.4, 52.9, 69.7, 67.7, 62.2, 50.4, 52.3, 48.4, 50.8%"
same,growth,KM12 colon; runs of 2015,"inactive: 58.5 (2×), 51.9, 48, 55.9, 62.2, 60.4, 58, 55.5, 54.3, 58.6, 59.8, 62.4, 64, 65.2, 54.7, 44, 43.7, 49.7 (3×), 50.4, 46.2, 49, 53.4 (3×), 59.1 (2×), 60.9, 55.7 (2×), 57.4, 54.9, 45.1, 48.9 (3×), 50.3, 45.8, 49.2, 48.7, 55.2, 55, 54.8 (2×), 55.1, 61.6, 70.7, 44.6, 48.1 (2×), 53.5, 53.6, 52.2 (2×), 48.8, 51, 51.8 (2×), 49.8 (3×), 48.4, 46.1, 49.1, 53.3, 50.9, 57, 47.8, 49.6, 58.7, 53.2 (2×), 51.6, 53.8, 50.6, 48.5, 47.5, 57.5, 53%"
same,growth,KM12 colon; runs of 2016,"inactive: 50.4, 47.3, 56.1 (2×), 51.1, 57.4, 55.2 (2×), 48.4 (2×), 56.4 (2×), 55.8 (2×), 62.9, 67.2 (2×), 57.8, 56.7 (2×), 53.9, 54.8, 50.5, 45.2, 52.1, 43.4, 40.9, 54.6, 48.5 (2×), 43.7, 43.2, 61.4, 55, 56.2, 56, 50.8, 49.3, 44.8, 44.5, 45.3, 53.8, 51 (2×), 57.3, 62.2 (3×), 53.3, 62.3, 57.1 (2×), 58 (2×), 61.7, 53.5, 51.9, 42.6, 54, 52.4, 63.9, 61.6, 64.3, 67.8, 57.5, 55.9, 59.7, 55.1, 69.2, 62.4, 67.6, 64.4, 71, 63.5, 66.5, 67.5, 70.3, 65.9, 52.5, 62.7, 63.3, 65.7, 61.5%"
